Measurements from PubChem BioAssay AID1508623 (National Center for Advancing Translational Sciences (NCATS), 2021).
In all, about 48,000 compounds went through this assay and about 450 (0.94%) were called active. Roughly 19% stayed inconclusive and do not appear here. Calls come from the whole dose curve; as a rule, active = well fitted inhibition curve with a large enough effect; inconclusive = small, poorly fitted or top-dose-only effect; inactive = no such curve, though single readings can be large or run the other way. The list shows a part of the results.

Test: Primary qHTS for Identification of Small Molecule Inhibitors of Huntingtin Promoter Activity; note: nearly all actives have a fitted effect of over 50% in size
Details: HEK293 HTT promoter firefly luciferase reporter (activity 0% = vehicle and -100% = no light), 24 h; series mostly up to 57.5 µM; activity change, negative = inhibition: at the top concentration
Outline: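 HEK293 cells carrying firefly luciferase reporters were seeded at 2,500 per well in Opti-MEM and cultured for 24 h. They were then treated with compounds at up to 57.5 uM final for 24 h at 37 degrees C before Dual-Glo luminescence readout.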

Activity change, negative = inhibition, inactive:
Cc1ccc(-c2nc3sccn3c2Nc2ccc(C)c(C)c2)cc1 0%
Cc1nn2c(=O)cc(COC(=O)c3ccccc3NC(=O)COc3ccccc3C)nc2s1 -16.9%
Cc1ccc(SCc2nc(-c3ccc(C(=O)NCCc4ccc(Cl)cc4)cc3)oc2C)cc1 -17.9% [at 11.5 µM]
CCN(CC)CCOc1ccc(Cc2ccccc2)cc1
CCOC(=O)c1cc(OC(=O)c2ccccc2Cl)n(-c2ccccc2)n1 -12.9%
COC(=O)c1cc2sc(Cl)cc2n1CC(=O)Nc1cc(C)cc(C)c1 -15.5%
COC(=O)c1cc2occc2n1CC(=O)Nc1ccc(N(C)C)cc1 6.52%
Cc1ccc(CNC(=O)Cn2c(=O)n(-c3ccc(C)cc3)c(=O)c3c2c2cc(C)ccc2n3C)cc1 8.43%
COC(=O)c1c(N)n(-c2ccc(OC)c(OC)c2)c2nc3ccccc3nc12 -2.82%
N#Cc1nc(-c2ccc(COc3ccccc3)o2)oc1N1CCCCC1 -31%
Cc1ccccc1NC(=O)Cn1c(=O)n(Cc2ccccc2)c(=O)c2c(C)c(C)sc21 -1.87%
CCC(Sc1nnc2c3ccccc3n(CC)c2n1)C(=O)Nc1nnc(C(C)C)s1 (centres undefined) -12.6%
COc1ccc(-c2cc3nc(C4CCN(C(=O)OC(C)(C)C)CC4)c(C(=O)Nc4cc(C)cc(C)c4)cn3n2)cc1 -17.8%
Cn1c(=O)cc(SCC(=O)N2CCN(c3ccccc3F)CC2)c2ccccc21 -10%
CCCN1CCN(CCCNC(=O)c2ccc3nc(Cc4ccccc4)oc3c2)CC1 -17.4%
CCOc1ccc(CN(CCc2ccc3c(c2)OCO3)Cc2cc(OC)c(OC)cc2OC)cc1 -18.3%
COc1ccc(C)cc1NC(=O)c1cc(S(=O)(=O)N2CCCCC2)c[nH]1 -22.5%
Cc1cc(C)cc(NC(=O)CCCc2nc(-c3ccco3)no2)c1 -22.1%
Cc1cc(-n2c(C)nc3ccccc3c2=O)ccc1NC(=O)c1ccccc1[N+](=O)[O-] -8.11%
O=C(CCSCCc1ccccn1)Nc1ccccc1C(F)(F)F -19.3%
CCc1ccccc1NC(=O)Cn1cc(C(=O)c2ccncc2)c(=O)c2cc(C)ccc21 0.759%
COc1ccc(CCNC(=O)c2cc(-c3ccc(C)cc3)nc3n[nH]c(-c4ccc(F)cc4)c23)cc1OC -18.2%
O=C(COCc1cc(-c2ccc(F)cc2)on1)Nc1cc(Cl)cc(Cl)c1 -16.8%
O=C(CCSCc1cccc(F)c1)NCCc1ccccc1 3.56%
Cc1ccc(N2CC(C(=O)NCCS(=O)(=O)N3CCN(c4ccc(F)cc4)CC3)CC2=O)cc1 (centres undefined) -10.5%
COc1cc(OC)c(NC(=O)Cn2c(=O)nc(-c3ccccc3)c3ccccc32)cc1Cl -10.6%
CC1=C(C(=O)Nc2cccc(F)c2)C2(CCCCCC2)OC1=O -16.6%
COc1cccc(Cn2c(=O)n(-c3cc(C)cc(C)c3)c(=O)c3oc4ccccc4c32)c1 -13.8%
Cc1ccc2c(=O)c(C(=O)c3cccc(Cl)c3)cn(CC(=O)NCc3ccccc3)c2n1 -4.07%
CCOc1cc(CNC(=O)c2cc(-c3ccc(Cl)s3)nc3ccccc23)ccc1OC -3.37%
COc1ccc(CCNC(=O)Cn2c(=O)cc(C(F)(F)F)c3c(C)nn(C)c32)c(OC)c1 -2.41%
Cc1ccc(N2CCN(S(=O)(=O)c3nnc(NC(=O)c4cccc(F)c4)s3)CC2)cc1 -29.2%
O=C(Cn1cccc1C(=O)c1ccccc1)NCc1ccc(Cl)cc1 -6.54%
COc1ccc(NC(=O)CNC(=O)Cn2ccc3ccccc3c2=O)c(OC)c1 -4.59%
CCCN1CCN(CCCNC(=O)c2cc3c(=O)[nH]c4ccccc4c3s2)CC1 -13.7%
Cc1ccc(CNC(=O)c2cnc(N3CCCC3)nc2C)cc1 -23.9%
CCc1ccccc1NC(=O)c1nnn(CC(=O)Nc2c(C)cc(C)cc2C)c1N -10.5%
Cc1cc(C)c2c(NC(=O)c3ccccc3Cl)c(C(=O)Nc3ccc(C)c(C)c3)sc2n1 40%
COc1cc(CNCCSc2nnnn2C)ccc1OCc1ccccc1 9.36%
C[C@@H]1[C@H](C)CC[C@]2(C(=O)O)CC[C@]3(C)C(=CC[C@@H]4[C@@]5(C)C[C@@H](O)[C@H](O)[C@@](C)(CO)[C@H]5CC[C@]43C)[C@@H]12 -4.94%
Cc1ccc2nc3sc(C(=O)Nc4ccc(F)cc4)cc3cc2c1 30.9%
CCOC(=O)c1cc(S(=O)(=O)N2CCN(c3cccc(C)c3)C(C)C2)[nH]n1 (centres undefined) -13.4%
COC(=O)c1ccc(NC(=O)C(C)N2Cc3ccccc3C2=O)cc1 (centres undefined) -20.3%
COc1ccc(N2CCN(C(=O)c3c(C)oc4ncn(CC(C)C)c(=O)c34)CC2)cc1 -0.644%
N[C@H]1C(O)O[C@H](CO)[C@@H](O)[C@@H]1O (some centres undefined) 9.16%
CCn1cc(C(=O)N2CCN(c3ccccc3OC)CC2)c2cc(OC)c(OC)cc2c1=O -4.23%
CCC(Oc1ccccc1)C(=O)Nc1nnc(S(=O)(=O)N2CCCC2)s1 (centres undefined) -14.9%
CCc1ccc(OCC(=O)Nc2c(C(=O)c3ccc(Br)cc3)oc3ccccc23)cc1 -5.04%
OC[C@H]1O[C@@H](n2cnc3c2NC=NC[C@@H]3O)C[C@H]1O -8.53%
CCOc1cccc2sc(=NC(=O)c3ccc(S(=O)(=O)N4CCOCC4)cc3)n(C)c12 -18.5%
CCCCN(CCCC)CCn1cnc2c([nH]c3ccc(OC)cc32)c1=O -18.6%
COc1ccc(NC(=O)c2oc3ccccc3c2NC(=O)c2cc(=O)c3ccccc3o2)cc1 1.3%
COc1ccc(CNC(=O)c2ccc(-c3nc(CSc4ccccc4)c(C)o3)cc2)cc1 -20.2%
Cc1ccc2c(c1)-c1nc(-c3ccccc3)cc(-c3ccccc3)c1CO2 -7.04%
C=C1C[C@H]2[C@@H]3C=C(C)C4=CC(=O)CC[C@]4(C)[C@H]3CC[C@]2(C)[C@@]1(OC(C)=O)C(C)=O -18.6%
Cc1nn2c(=O)cc(COC(=O)c3ccccc3NC(=O)C3CCCCC3)nc2s1 -11.2%
O=C(NCCc1csc(-c2cccc(F)c2)n1)c1ccco1 -13%
COc1cc(-c2cc3n(C)c(C)c(CCC(=O)NC4CCC(C)CC4)c(=O)n3n2)cc(OC)c1OC (centres undefined) 20.8%
O=C(NC1CCCC1)c1ccc2c(c1)N(Cc1c(F)cccc1Cl)C(=O)c1ccccc1S2 -24.6%
COc1cccc2c1Oc1ncccc1N(C(=O)CCC(=O)NCc1ccc(OC(C)C)cc1)C2 1.46%
Cc1nn(CC(=O)NC(C)c2ccccc2)c(=O)c2cc3occc3n12 (centres undefined) -10.3%
O=C(CSc1nc2c([nH]c3ccccc32)c(=O)n1-c1ccccc1)Nc1ccccc1C(F)(F)F -12.9%
NC(=O)COc1ccc(-c2noc(COc3ccc(Cl)cc3)n2)cc1 -9.76%
NS(=O)(=O)c1ccc(CCNC(=O)Cn2c(=O)c3cccn3c3ccc(F)cc32)cc1 -0.806%
COc1ccc2c(c1)CC(C(=O)Nc1c(C)cc(C)cc1C)CO2 (centres undefined) -13.6%
COc1cccc(C(=O)NCC(c2ccc3c(c2)OCO3)N2CCN(C)CC2)c1 (centres undefined) -9.12%
Cc1[nH]c2ccccc2c1C1(O)C(=O)Nc2ccc(Cl)cc21 (centres undefined) 1.06%
COc1cc(CNCCCSc2nnnn2C)cc(Br)c1OC 1.07%
Cc1ccc(-n2c3c(c(=O)[nH]c2=O)C(NC(=O)C(C)(C)C)(C(F)(F)F)C(=O)N3)cc1 (centres undefined) -7.34%
COc1ccc(OC)c(NC(=O)CCCOc2cc(=O)n(C)c3ccccc23)c1 -18.8% [at 11.5 µM]
COc1cccc(NC(=O)CSC2=Nc3ccccc3C3=NC(CCC(=O)NC4CCCCC4)C(=O)N23)c1 (centres undefined) -9.43%
COc1ccc2c(c1)c(CC(=O)OC/C=C(\C)CC/C=C(\C)CCC=C(C)C)c(C)n2C(=O)c1ccc(Cl)cc1 5.95%
CNC(=O)C1CCC(Cn2c(=O)c3sccc3n(CC(=O)Nc3ccc(C)cc3C)c2=O)CC1 (centres undefined) -11.1%
Cc1cccc(NC(=O)CSc2nc(=O)n(CCN3CCOCC3)c3c2CCC3)c1 -12.5%
COc1cccc(NC(=O)CN2C(=O)COc3ccc(S(=O)(=O)N4CCOCC4)cc32)c1 -6.94%
CN(c1nnc(NC(=O)Nc2ccc(Br)cc2)s1)C1CCCCC1 28.2%
Cc1ccc(NC(=O)Nc2csc3c2CCCC3)c(C)c1 -7.37%
NC(=O)C1CCN(C(=O)c2ccccc2NC(=O)c2nsc3ccccc23)CC1 37.5%
CCOC(=O)c1c(NC(=O)c2cc(=O)c3c(C)cc(C)cc3o2)sc(C)c1C 14.2%
COc1ccccc1Nc1nn2c(=O)c3ccc(C(=O)NC4CCCCC4)cc3nc2s1 -11.7%
CCOc1ccc(N(CC(=O)NCc2ccc(C)cc2)S(=O)(=O)c2c(C)[nH]c(=O)[nH]c2=O)cc1 -6.31%
Brc1ccc(-c2csc(-c3nc(-c4ccc(Br)s4)cs3)n2)cc1 1.1%
CCN1CCN(C(c2cccc(OC)c2)c2c(O)cc(C)n(Cc3ccco3)c2=O)CC1 (centres undefined) -5.74%
CCc1ccc(NC(=O)c2sc3nc(-c4ccccc4)cn3c2C)cc1 -23.4%
COc1cccc(C2C=C(c3ccc(C)cc3)Nc3c(C(=O)Nc4ccc(F)cc4)cnn32)c1OC (centres undefined) -21.4%
O=C(Nc1ccccc1C(F)(F)F)N1Cc2ccccc2Oc2ncccc21 18.7%
CC(NC(=O)c1ccc(Cn2c(SCc3ccccc3)nc3cccnc32)cc1)c1ccccc1 (centres undefined) -3.65%
CC(CCc1ccccc1)NC(=O)Cn1ncc2c3ccccc3n(Cc3cccc(Cl)c3)c2c1=O (centres undefined) 6.69%
COc1ccc(CN(C(=O)c2ccc(OCC(C)C)cc2)C2CCS(=O)(=O)C2)cc1 (centres undefined) -5.13%
CCc1cccc(-n2nnc(-c3nc(-c4ccc5c(c4)OCO5)no3)c2C)c1 -2.95%
Cc1cccc(C(=O)NCc2nnc(SCC(=O)Nc3ccccc3F)n2-c2ccccc2)c1 -9.39%
COc1ccc(NC(=O)CSc2nc(-c3ccccc3)c3ccccc3n2)cc1 -2.42%
CCN(CC)Cc1ccc2cc(COC(=O)Nc3ccc(C(=O)NO)cc3)ccc2c1 161%
CC1CN(C(=O)Nc2ccc(C(=O)NCCc3ccc(Cl)cc3)cc2)c2ccccc2S1 (centres undefined) 8.56%
